# Source: the supplement of paper PMC10369915
# This is one part of the list. Cut-off read from the data, not from the text of the source: active = 3.2 or more and inactive = the rest. Only a few entries rise above the background.
# Experiments:
# Assay in all cases: enrichment score (SH2-bound / input frequency) (ratio); bacterial display of known human phosphotyrosine sites (pTyr-Var adds point mutants) read by sequencing; higher = stronger binding; tyrosines were phosphorylated by kinases first
# Conditions in all cases: peptide library: pTyr-Var
# SHP2 C-SH2 domain E139D = biological target: SHP2 C-SH2 domain E139D
# [1] = biological target: SHP2 C-SH2 domain wild-type
# SHP2 N-SH2 domain L43F = biological target: SHP2 N-SH2 domain L43F
# SHP2 N-SH2 domain T42A = biological target: SHP2 N-SH2 domain T42A
# SHP2 N-SH2 domain T52S = biological target: SHP2 N-SH2 domain T52S
# [2] = biological target: SHP2 N-SH2 domain wild-type
# 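Note: displayed peptides selected on beads carrying the immobilized SH2 domain, with library peptides lacking any tyrosine serving as negative controls.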
Binder,enrichment score (SHP2 C-SH2 domain E139D),enrichment score [1],enrichment score (SHP2 N-SH2 domain L43F),enrichment score (SHP2 N-SH2 domain T42A),enrichment score (SHP2 N-SH2 domain T52S),enrichment score [2]
DQVEQCKKELE [LMNA_Y259_Y259C],inactive: 0.607,inactive: 0.577,inactive: 0.542,inactive: 0.587,inactive: 0.707,inactive: 0.558
RRSKMYLKTRS [LPL_Y329_S325R],inactive: 0.254,inactive: 0.126,inactive: 0.201,inactive: 0.409,inactive: 0.182,inactive: 0.233
TLARLYHPDST [LRIG1_Y1029],inactive: 0.697,inactive: 0.61,inactive: 0.729,inactive: 0.47,inactive: 0.422,inactive: 0.591
PGIRMYRVQFN [LRFN1_Y454_Q455R_YF],inactive: 0.407,inactive: 0.33,inactive: 0.371,inactive: 0.218,inactive: 0.506,inactive: 0.376
SAPPSYEETVA [LITAF_Y23],inactive: 0.451,inactive: 0.583,inactive: 0.521,inactive: 0.505,inactive: 0.548,inactive: 0.643
NPPGMHPVTGP [LPP_Y346_Y346H],inactive: 0.481,inactive: 0.455,inactive: 0.663,inactive: 0.407,inactive: 0.497,inactive: 0.745
RAEAPYLLVSN [LRIG1_Y1054_Q1053P],inactive: 0.93,inactive: 0.711,inactive: 0.757,inactive: 0.845,inactive: 0.948,inactive: 0.87
RRESQYQENRG [LRCH3_Y354],inactive: 0.278,inactive: 0.406,inactive: 0.301,inactive: 0.297,inactive: 0.275,inactive: 0.402
FQKNIYSEEPR [LMNA_Y211_L215P],inactive: 0.641,inactive: 0.677,inactive: 0.752,inactive: 0.67,inactive: 0.728,inactive: 0.536
NSNAAYEESHF [LRIF1_Y714_Q716E],inactive: 0.535,inactive: 0.576,inactive: 0.631,inactive: 0.464,inactive: 0.62,inactive: 0.672
DRLAVYIDRVP [LMNA_Y45_R50P],inactive: 1,inactive: 0.845,inactive: 0.853,inactive: 0.771,inactive: 0.888,inactive: 0.898
LVTCSYLLGNS [LMNA_Y646_R644C],inactive: 0.724,inactive: 1.07,inactive: 0.875,inactive: 0.61,inactive: 0.624,inactive: 1.21
FQKNSYSEELR [LMNA_Y211_I210S],inactive: 0.526,inactive: 0.541,inactive: 0.636,inactive: 0.622,inactive: 0.639,inactive: 0.843
NPPGMYPVTGP [LPP_Y346],inactive: 0.75,inactive: 0.925,inactive: 0.789,inactive: 0.722,inactive: 0.905,inactive: 0.638
FDCGMYSHLQG [LGR4_Y848_YF],inactive: 1.47,inactive: 1.17,inactive: 1.13,inactive: 0.984,inactive: 0.996,inactive: 1.3
GIKAAYEAERG [LMNA_Y81_L85R],inactive: 0.657,inactive: 0.6,inactive: 0.561,inactive: 0.634,inactive: 0.62,inactive: 0.682
MYRVQYNSSVD [LRFN1_Y458_Q455R],inactive: 1.09,inactive: 0.881,inactive: 0.931,inactive: 0.954,inactive: 1.02,inactive: 1.02
LQKNIYSEELR [LMNA_Y211_F206L],inactive: 0.835,inactive: 0.968,inactive: 0.965,inactive: 0.656,inactive: 0.727,inactive: 0.884
KVNKIYYPDFI [LIG3_Y767],inactive: 1.23,inactive: 1.02,inactive: 1.21,inactive: 1.05,inactive: 1.37,inactive: 1.27

Binder,enrichment score (SHP2 C-SH2 domain E139D),enrichment score [1],enrichment score (SHP2 N-SH2 domain L43F),enrichment score (SHP2 N-SH2 domain T42A),enrichment score (SHP2 N-SH2 domain T52S),enrichment score [2]
QQLDKYQELLD [LMNA_Y359_E358K],inactive: 0.694,inactive: 0.899,inactive: 0.822,inactive: 0.745,inactive: 0.911,inactive: 0.884
QQLDEYQKLLD [LMNA_Y359_E361K],inactive: 0.85,inactive: 0.916,inactive: 0.731,inactive: 0.804,inactive: 0.858,inactive: 1.06
RSSKMYLKTRS [LPL_Y329],inactive: 0.841,inactive: 0.496,inactive: 0.429,inactive: 0.366,inactive: 0.566,inactive: 0.543
RSSKTYLKTRS [LPL_Y329_M328T],inactive: 0.598,inactive: 0.482,inactive: 0.526,inactive: 0.522,inactive: 0.449,inactive: 0.523
YGCGMYSHLQG [LGR4_Y848_D844G],inactive: 1.04,inactive: 1.12,inactive: 1.16,inactive: 0.904,inactive: 0.835,inactive: 1.39
PQDVTYAQLHS [LILRB4_Y412],inactive: 0.743,inactive: 1.54,inactive: 1.51,active: 3.82,inactive: 1.25,inactive: 0.814
PGIRMYQVQFN [LRFN1_Y454_YF],inactive: 3.17,inactive: 2.37,inactive: 2.56,inactive: 2.26,inactive: 2.72,inactive: 2.71
MFQVQYNSSVD [LRFN1_Y458_YF],inactive: 1.18,inactive: 1.04,inactive: 1.16,inactive: 1.36,inactive: 1.15,inactive: 0.984
DPLLTYRFPPN [LMNA_Y481_K486N],inactive: 1.03,inactive: 0.687,inactive: 1.04,inactive: 0.677,inactive: 0.957,inactive: 0.921
PGIRMYRVQYN [LRFN1_Y454_Q455R],inactive: 0.553,inactive: 0.445,inactive: 0.693,inactive: 0.578,inactive: 0.538,inactive: 0.522
DQVEQYKKELE [LMNA_Y259],inactive: 0.773,inactive: 0.623,inactive: 0.528,inactive: 0.532,inactive: 0.593,inactive: 0.643
DPLLTYWFPPK [LMNA_Y481_R482W],inactive: 1.01,inactive: 1.05,inactive: 1.27,inactive: 0.971,inactive: 1.32,inactive: 1.21
PSALGYSPSLR [LLGL2_Y40],inactive: 0.673,inactive: 0.46,inactive: 0.533,inactive: 0.5,inactive: 0.752,inactive: 0.879
KEIHAYRKLLE [LMNA_Y376_M371K],inactive: 0.864,inactive: 0.684,inactive: 0.573,inactive: 0.513,inactive: 0.654,inactive: 0.368
MEIHAYHKLLE [LMNA_Y376_R377H],inactive: 1.96,inactive: 1.31,inactive: 1.54,inactive: 1.65,inactive: 1.84,inactive: 1.83
MEIHAYRKLSE [LMNA_Y376_L380S],inactive: 0.485,inactive: 0.475,inactive: 0.453,inactive: 0.414,inactive: 0.421,inactive: 0.509
VNKIFHPDFIV [LIG3_Y768_Y768H_YF],inactive: 1.22,inactive: 0.892,inactive: 1.12,inactive: 1.01,inactive: 0.887,inactive: 0.98
PQAVTYAEVKH [LILRB4_Y360_K362E],inactive: 2.64,active: 5,inactive: 2.54,active: 6.74,inactive: 2.44,inactive: 1.01
